# Measurements published in publication PMC4336329 (PLoS ONE, 2015).
# Among all 310,000 compounds or so, about 14,000 (4.5%) showed an effect of 50% or more. Effects have a minus sign here. The list shows a part of the results.
# Target: human ether-à-go-go-related gene (hERG) potassium channel (human, UniProt Q12809)
# Test: primary screen, population patch clamp on CHO cells stably expressing hERG
# 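Further: peak tail current of the secondary pulse compared with the same well before compound.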
# Chain of human ether-à-go-go-related gene (hERG) potassium channel (Q12809 whole entry, looked up): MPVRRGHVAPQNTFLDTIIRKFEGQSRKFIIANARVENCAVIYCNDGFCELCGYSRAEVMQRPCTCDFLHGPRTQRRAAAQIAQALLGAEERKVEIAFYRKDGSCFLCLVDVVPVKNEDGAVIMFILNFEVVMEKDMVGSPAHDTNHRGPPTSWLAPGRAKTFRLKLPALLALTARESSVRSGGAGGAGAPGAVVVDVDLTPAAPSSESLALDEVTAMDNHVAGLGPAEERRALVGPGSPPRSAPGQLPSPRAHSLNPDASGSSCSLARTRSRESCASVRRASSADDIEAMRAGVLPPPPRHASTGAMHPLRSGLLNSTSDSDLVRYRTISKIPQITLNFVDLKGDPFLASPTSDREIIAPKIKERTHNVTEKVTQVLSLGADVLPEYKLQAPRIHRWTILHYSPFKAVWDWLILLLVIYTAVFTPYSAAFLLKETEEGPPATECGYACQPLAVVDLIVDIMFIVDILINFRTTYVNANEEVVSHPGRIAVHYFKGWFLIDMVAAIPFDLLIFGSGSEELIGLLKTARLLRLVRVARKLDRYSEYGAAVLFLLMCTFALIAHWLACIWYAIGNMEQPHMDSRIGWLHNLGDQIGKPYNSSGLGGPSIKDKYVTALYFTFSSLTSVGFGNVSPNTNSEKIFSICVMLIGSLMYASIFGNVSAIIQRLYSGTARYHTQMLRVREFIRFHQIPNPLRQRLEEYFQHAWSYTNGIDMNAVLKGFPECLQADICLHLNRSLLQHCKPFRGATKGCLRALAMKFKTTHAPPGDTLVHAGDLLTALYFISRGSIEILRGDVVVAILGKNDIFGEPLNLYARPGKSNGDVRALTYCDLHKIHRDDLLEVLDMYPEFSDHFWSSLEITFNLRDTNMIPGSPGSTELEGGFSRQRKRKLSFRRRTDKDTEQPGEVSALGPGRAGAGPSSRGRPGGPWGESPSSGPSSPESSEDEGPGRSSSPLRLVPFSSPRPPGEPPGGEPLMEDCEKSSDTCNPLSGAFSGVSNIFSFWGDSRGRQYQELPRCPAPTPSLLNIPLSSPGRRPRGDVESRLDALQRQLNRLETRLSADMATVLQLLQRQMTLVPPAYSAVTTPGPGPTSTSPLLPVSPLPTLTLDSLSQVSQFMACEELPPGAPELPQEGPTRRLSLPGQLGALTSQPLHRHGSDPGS
row,Structure (SMILES),"hERG current change (%, negative = inhibition) at 10uM"
1,Cn1ccnc1SCC(=O)N1CCN(S(=O)(=O)c2ccccc2)CC1,-0.264%
2,Cc1ccc(N(CC(=O)N2CCN(C3CCCCC3)CC2)S(=O)(=O)c2cccnc2)cc1,-37.3%
3,CN(C(=O)COC(=O)c1cc2c(s1)CCCCC2)c1ccccc1,-9.17%
4,CCC(CC)C(=O)Nc1nnc(S(=O)(=O)N(CC)c2ccc(OC)cc2)s1,13.6%
5,Cn1cc(Br)c(C(=O)Nc2c(F)c(F)c(F)c(F)c2F)n1,-6.6%
6,Cc1cc(Cl)ccc1C(=O)C1CCCN(C(=O)c2ccc3ncccc3c2)C1 (stereo not shown),-29.5%
7,COc1ccc(N2CCSC2C(=O)NN)cc1 (stereo not shown),-9.35%
8,C=CCN(CC=C)Cc1nc(N)nc(Nc2ccccc2C)n1,-10.8%
9,O=C(O)c1ccccc1C(=O)c1ccc2c(c1)N(Cc1cccc(F)c1)C(=O)CO2,-18.1%
10,N#C/C(=C/c1ccccc1)C(=O)OCC(=O)Nc1ccccc1[N+](=O)[O-],8.46%
11,O=C(CSc1ccccc1C(=O)NCCCN1CCCC1=O)NCc1ccco1,2.25%
12,O=C(c1ccc2c(=O)n3c(nc2c1)CCCCC3)N1CCN(Cc2ccccc2)CC1,-2.69%
13,Cc1ccc(-c2c(C)sc3nc[nH]c(=O)c23)cc1C,-7.6%
14,CCOC(=O)N1CCN(C(=O)c2cc3cc(C)ccc3[nH]2)CC1,-7.43%
15,COc1ccc2nc(-c3ccccc3)cc(C(=O)N3CCC3)c2c1,-12.1%
16,Cc1ccccc1NC(=S)N(CCc1c(C)[nH]c2ccc(F)cc12)Cc1ccncc1,-18.5%
17,COc1ccc(Cl)cc1NC(=O)CSc1nnc(C)c(=O)n1N,2.48%
18,COC(=O)CSC1=C(C#N)C(c2ccc(C)o2)CC(=O)N1 (stereo not shown),7%
19,Cc1ccc(C2Nc3ccccc3C(=O)N2CCCN2CCOCC2)cc1 (stereo not shown),-34.2%
20,CC(=O)c1c(C)nc(-c2ccc(Cl)cc2)nc1N=CN(C)C,6.82%

row,Structure (SMILES),"hERG current change (%, negative = inhibition) at 10uM"
1,COc1ccc(-c2c(C)oc3c(CN4CCN(C)CC4)c(O)ccc3c2=O)cc1,13%
2,Cc1ccc(S(=O)(=O)N2CCN(C(=O)CSc3n[nH]c(N)n3)CC2)c(C)c1,6.31%
3,CCN1C(=O)/C(=C\c2ccc3c(c2)OCO3)C(C(=O)OC)=C1C,2.26%
4,COc1cccc(N/C=C/C(=O)c2ccc(C)cc2)c1,2.4%
5,CC(/C=N/NC(=O)c1cc(-c2ccc(Cl)cc2)nc2ccccc12)=C\c1ccco1,38.4%
6,CCOC(=O)C(C(=O)OCC)C(Nc1ccc(Br)cc1)c1ccccc1 (stereo not shown),-6.82%
7,Cc1noc(C)c1COc1ccc(C(=O)NCC2CCCO2)cc1 (stereo not shown),7.53%
8,Cc1nccn1-c1c([N+](=O)[O-])c(=O)n(C)c2ccccc12,4.46%
9,Cc1ccc(Cl)cc1N(CC(=O)N1CCCCCC1)S(C)(=O)=O,-7.3%
10,CCC(C)C(NC(C)=O)C(=O)NC(=O)NC(c1ccccc1)c1ccccc1 (stereo not shown),-15.8%
11,O=C(NC1CCSc2ccccc21)c1c(F)cccc1Cl (stereo not shown),13.8%
12,CN1C2CCC1CC(NS(=O)(=O)c1cc(Cl)c(Cl)cc1Cl)C2 (stereo not shown),-27.1%
13,Nc1nc(N)c(N=Nc2ccc(C(=O)O)cc2)c(N)n1,23%
14,Cc1c(C(=O)NNC(=O)c2ccccc2O)oc2ccc(Br)cc12,8.46%
15,Cc1ccc(-c2noc(CCC(=O)NCCCN3CCN(c4ccc(F)cc4)CC3)n2)cc1,-66.8%
16,CC1CCCN(CCCOc2ccc(Cl)cc2Br)C1.O=C(O)C(=O)O (stereo not shown),-70.5%
17,Cc1cc(C(=O)NN=C2CCCCCCC2)c2ccccc2n1,5.42%
18,Fc1ccccc1N1CCN(Cc2cccnc2)CC1,-0.61%
19,COc1ccc(NC(=O)C2Cc3cccc(OC)c3O/C2=N\O)cc1 (stereo not shown),6.66%
20,COc1ccc(NC(=S)NN2C(C)CCCC2C)cc1 (stereo not shown),16.6%

row,Structure (SMILES),"hERG current change (%, negative = inhibition) at 10uM"
1,COc1cccc(/C=N/NC(=O)c2c(C)nc3ccc(Br)cn23)c1,-6.71%
2,Cc1nc2ccc(S(=O)(=O)NCC(=O)NCc3ccc(Cl)cc3)cc2s1,17.4%
3,CS(=O)(=O)N(CC(=O)N1CCCC1)c1cc(Cl)ccc1Cl,15.6%
4,C/C(=N\Nc1nc(N2CCCCC2)nc(N2CCOCC2)n1)c1cccs1,11.4%
5,CCC1CCc2c(sc(NC(=O)c3cccnc3)c2C(N)=O)C1 (stereo not shown),17.9%
6,Cc1cc(C)c2c(CC(=O)NNC(=O)c3ccccc3)coc2c1,20.1%
7,Cc1cc(OCc2nn[nH]n2)c2c(C)c(CC(=O)O)c(=O)oc2c1,14.8%
8,CCCCNC(=S)NNC(=O)c1ccoc1C,4.26%
9,COCCNC(=O)/C(C#N)=C\c1ccc(CNC(=O)C(=O)Nc2ccc(C)c(C)c2)o1,-30.8%
10,Cc1nccn1CC1CCc2c(c3ccccc3n2C)C1=O.Cl.O (stereo not shown),-35.9%
11,CCC(Oc1ccc(C)cc1)C(=O)Nc1ccc(S(=O)(=O)Nc2cc(C)on2)cc1 (stereo not shown),21.9%
12,O=C1ON=C(c2ccccc2)/C1=C\c1ccco1,-15.8%
13,CC1=NN(C(=O)c2c(Br)c(C)nn2C)C(O)(C(F)(F)F)C1 (stereo not shown),-5.1%
14,Cc1ccccc1OC(=O)c1cccnc1,-2.11%
15,COC(=O)CN1C(c2ccccc2O)Nc2ccc(Br)cc2C1c1ccccc1 (stereo not shown),-12.9%
16,S=c1oc(-c2ccncc2)nn1CCc1ccncc1,13%
17,Cc1ccc(OCCCn2c(=O)oc3ccccc32)cc1,-5.25%
18,Cc1nnc(SCC(=O)NCc2ccccc2Cl)n(N)c1=O,-11.5%
